In the supplement of paper PMC12889115:
This is one part of the list. Rule as the data show it: active = 25% or less and inactive = the rest. Single values are uncertain, as repeats are few or missing.

Each compound was assayed on Salmonella enterica serovar Typhimurium SL1344 (assay: intramacrophage bacterial GFP load (SAFIRE), percent of DMSO control (% of DMSO); higher = more intracellular bacteria (less inhibition)). Conditions: 25 µM; system: infected RAW 264.7 macrophages.
Method: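 Secondary screen of the 553 primary hits at 25 µM. (i) S. Typhimurium SL1344 grown in Mueller-Hinton broth with 0.5 µg/mL polymyxin B, OD600 read after 18 h. (ii) SAFIRE assay: RAW 264.7 macrophages infected with S. Typhimurium sifB::gfp (MOI 30); compound added 2 h post-infection; cells fixed at 18 h; GFP-positive pixel fraction per macrophage imaged by confocal microscopy and expressed as % of DMSO control.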
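Also: compounds tested were the hits of an earlier 50 µM broth growth screen of a drug-like diversity library run with polymyxin B.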

| SMILES | intramacrophage bacterial GFP load |
| --- | --- |
| CN(C)C(=O)CC(c1ccccc1)c1cccc(Cl)c1 (stereo unspecified) | inactive: 76.2 |
| Clc1ccc(C2CCCN(Cc3nc(-c4ccccn4)no3)C2)cc1 (stereo unspecified) | active: 14.3 |
| CCOC(=O)C1(Cc2ccc(Cl)cc2)CCN(C(=O)C(C)n2nc(C)cc2C)CC1 (stereo unspecified) | active: 3.22 |
| O=C(c1cccc(N2CCCC2=O)c1)N(Cc1ccncc1)Cc1cccc(OCCc2ccc(F)cc2)c1 | inactive: 133 |
| O=C(Nc1cccc(-c2ccc(F)cc2)c1)C1CCCN(Cc2ccccn2)C1 (stereo unspecified) | active: 10.1 |
| Cc1cccc(N2CCN(C(=O)CCN3Cc4ccccc4OC(c4ccccc4F)C3)CC2)n1 (stereo unspecified) | inactive: 30.3 |
| O=C(CSc1ccccc1)N1CCc2onc(-c3ccc(Cl)cc3)c2C1 | inactive: 138 |
| O=C1N(CCCc2ccccc2)CCCC12CCN(c1ccccn1)C2 (stereo unspecified) | active: 8.4 |
| CCOC(=O)C1(CC2CC2)CCN(C(=O)C(C)Oc2cccc(Cl)c2)CC1 (stereo unspecified) | inactive: 78.6 |
| O=C(c1cc2cc(F)ccc2[nH]1)N1CCCC(CO)(Cc2cccc(Cl)c2)C1 (stereo unspecified) | inactive: 102 |
| COCc1ccc(C(=O)N2CCCC(CCc3ccccc3)C2)o1 (stereo unspecified) | inactive: 94 |
| COC1CCN(C(=O)CC(c2ccccc2)c2ccccc2Cl)CC1 (stereo unspecified) | inactive: 83.4 |
| CSCCCNC(=O)c1oc2ccc(C)cc2c1C | inactive: 73.1 |
| CCCCN(Cc1ccccc1)C(=O)CCc1nnc(C(OC)c2ccccc2)o1 (stereo unspecified) | inactive: 136 |
| Cc1c(CN2Cc3ccccc3OC(c3ccccc3F)C2)cnn1C (stereo unspecified) | active: 13.3 |
| CN(C)c1ccccc1C(=O)N1CCCC(CO)(Cc2cccc(Cl)c2)C1 (stereo unspecified) | inactive: 72.2 |

| SMILES | intramacrophage bacterial GFP load |
| --- | --- |
| O=C(c1ccccc1OC1CCN(Cc2ccc(Cl)s2)CC1)N1CCCCC1 | active: 6.99 |
| CN(Cc1ccc2nccnc2c1)C(=O)CC1(c2ccc(-c3ccccc3)cc2)CC(=O)N(C)C1=O (stereo unspecified) | inactive: 111 |
| O=C(NC1Cc2ccccc2C1)c1coc(COc2cccc(F)c2)n1 | inactive: 149 |
| CC(C)/C=C/C(=O)NCCN1Cc2ccccc2OC(c2ccccc2F)C1 (stereo unspecified) | inactive: 26 |
| CO[C@H]1[C@H](NC(=O)c2ccccn2)c2ccccc2C12CCN(C(=O)c1ccc(CC(C)C)cc1)CC2 | inactive: 46.3 |
| Cc1oc(-c2cccc(C(F)(F)F)c2)nc1CN(Cc1ccccc1)C[C@@H]1CCC(=O)N1 | inactive: 77.2 |
| Cc1cnccc1CN(C)C(=O)CC(c1ccccc1)c1ccccc1Cl (stereo unspecified) | active: 3.16 |
| c1ccc(Cc2noc(-c3ccc(NC4CCSC4)nc3)n2)cc1 (stereo unspecified) | inactive: 126 |
| O=C(c1ccc(N2CCCC2=O)cc1)N(Cc1ccncc1)Cc1cccc(OCCc2ccc(F)cc2)c1 | inactive: 49.1 |
| CCOC(=O)C1CCCCN1C(=O)c1cn(C(c2ccccc2)c2ccccc2)nn1 (stereo unspecified) | inactive: 93.7 |
| COCC1CCN(c2ccc(-c3nc(COc4ccccc4)no3)cn2)C1 (stereo unspecified) | inactive: 161 |
| COc1ccc(OC)c(CN2CCOc3ccc(C(O)CCc4ccccc4)cc3C2)c1 (stereo unspecified) | inactive: 51.3 |
| CCOC(=O)C1(Cc2cccc(C(F)(F)F)c2)CCN(C(=O)Cc2nonc2C)CC1 | inactive: 89.8 |
| O=C(Nc1cccc(-c2ccc(F)cc2)c1)C1CCCN(C(=O)C2CCC2)C1 (stereo unspecified) | inactive: 124 |
| Cc1ccc(C)c(S(=O)(=O)N2CCCC(CO)(Cc3cccc(Cl)c3)C2)c1 (stereo unspecified) | inactive: 95.2 |
